Results from PubChem BioAssay (Tox21).
This list was built around the results that the source calls inconclusive (neither active nor inactive); the mix of calls is not that of the screen. For some assays here: Where the call is inconclusive, the potency comes from a doubtful curve fit. Active and inactive are the calls of the source. Unless noted, calls come from the whole dose curve; as a rule, active = well fitted curve in the direction sought with a large enough effect in the repeat runs; inconclusive = weak or mixed curves; inactive = no such curve, though single readings can be large; an effect the other way counts as inactive or inconclusive.

test system: not listed separately; assay: qHTS assay for small molecule agonists of the antioxidant response element (ARE) signaling pathway (AID 743202; active = well fitted activation curve with a large enough effect in the signal ratio in the repeat runs, not every such curve was filed as active; inconclusive = weak or mixed curves, or effect the other way; inactive = no such curve, though single readings can be large or run the other way; the % refers to the signal ratio; for activation: % is set by controls: 0 for no effect and ±100 for the full control effect); conditions: HepG2 ARE-bla reporter, beta-lactamase FRET, 16 h; activation: at 73.3 µM (top of the series) unless noted
Outline: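 HepG2 ARE-bla cells; 16 h treatment at 37 C; FRET-based beta-lactamase fluorescence read after 2 h substrate incubation at room temperature.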
Potency is the fitted concentration of half-maximal effect; tags give direction and shape of the fitted curve or compound fluorescence and quenching.

| Compound | Potency | activation |
| --- | --- | --- |
| CCCCCCCCCCCCCCOS(=O)(=O)O | inconclusive: 68.6 µM |  |
| OC[C@H]1O[C@@H](Oc2ccc(O)cc2)[C@H](O)[C@@H](O)[C@@H]1O | inactive |  |
| Cc1ncc([N+](=O)[O-])n1C |  | inconclusive: 15.1% |
| CCOC(=O)COc1ccc2c(c1)CC(NCC(O)c1cccc(Cl)c1)CC2 (centres undefined) | inconclusive: 54.9 µM [falling, partial curve] |  |
| CCCCCOC(=O)c1ccc(O)cc1 | inconclusive: 77.9 µM [falling, partial curve, poor fit] |  |
| CC(C)c1ccccc1 |  | inactive: -8.86% [at 94.8 µM] |
| CCCCc1ccc2nc(NC(=O)OC)[nH]c2c1 | inconclusive: 7.5 µM [falling, partial curve, poor fit] |  |

test system: not listed separately; assay: qHTS assay for small molecule agonists of the antioxidant response element (ARE) signaling pathway - cell viability counter screen (AID 743203; calls by dose curve; note: nearly all actives have a fitted effect of over 55% in size; for viability change, negative = cytotoxic: % is set by controls: 0 for no effect and ±100 for the full control effect); conditions: ARE-bla HepG2 viability, CellTiter-Glo luminescence, 16 h; viability change, negative = cytotoxic: at 73.3 µM (top of the series)
Outline: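 Parallel cytotoxicity read-out for the ARE-bla screen: HepG2 reporter cells, 16 hrs with compounds, then CellTiter-Glo luminescence.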

| Compound | Potency |
| --- | --- |
| CCCCCCCCCCCCCCOS(=O)(=O)O | active: 61.1 µM |
| OC[C@H]1O[C@@H](Oc2ccc(O)cc2)[C@H](O)[C@@H](O)[C@@H]1O | inactive |
| CCOC(=O)COc1ccc2c(c1)CC(NCC(O)c1cccc(Cl)c1)CC2 (centres undefined) | active: 48.9 µM |

test system: not listed separately; assay: qHTS assay for small molecule activators of the heat shock response signaling pathway (AID 743210; active = well fitted activation curve with a large enough effect in the signal ratio in the repeat runs, with a control signal flat, not every such curve was filed as active; inconclusive = weak or mixed curves; the % refers to the signal ratio;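 for activation: HeLa cells with beta-lactamase reporter driven by heat shock elements; % is set by controls: 0 for no effect and ±100 for the full control effect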); conditions: HeLa HSE-bla reporter, beta-lactamase ratio, 5 h; activation: at 62.6 µM (top of the series) unless noted
Outline: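 Following overnight attachment, HSE-bla HeLa cells received test compounds for 5 h at 37 C; beta-lactamase activity was then detected via FRET substrate fluorescence.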

| Compound | Potency | activation |
| --- | --- | --- |
| CCCCCCCCCCCCCCOS(=O)(=O)O | inconclusive: 59.3 µM |  |
| CCOC(=O)COc1ccc2c(c1)CC(NCC(O)c1cccc(Cl)c1)CC2 (centres undefined) | inconclusive: 55.4 µM [activator] |  |
| CCCCCOC(=O)c1ccc(O)cc1 |  | inconclusive: 6.5% [at 81.1 µM] |
| CC(C)c1ccccc1 | inconclusive: 57 µM [activator, single point] |  |
| CCCCc1ccc2nc(NC(=O)OC)[nH]c2c1 | inconclusive: 21.1 µM |  |

test system: not listed separately; assay: qHTS assay to identify small molecule agonists of the peroxisome proliferator-activated receptor delta (PPARd) signaling pathway - cell viability counter screen (AID 743211); conditions: PPARd-bla HEK293H viability, CellTiter-Glo luminescence, 17 h; activity change, negative = cytotoxicity: at 62.6 µM (top of the series); note: nearly all actives have a fitted effect of over 55% in size; for activity change, negative = cytotoxicity: % is set by controls: 0 for no effect and ±100 for the full control effect
Outline: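 Luminescent ATP viability assay (CellTiter-Glo, 30 min RT) in UAS-bla HEK293H cells carrying the PPAR delta reporter construct, 3000 cells/well, after a 17 h compound treatment at 37 C.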

| Compound | Potency |
| --- | --- |
| OC[C@H]1O[C@@H](Oc2ccc(O)cc2)[C@H](O)[C@@H](O)[C@@H]1O | inactive |
| CCOC(=O)COc1ccc2c(c1)CC(NCC(O)c1cccc(Cl)c1)CC2 (centres undefined) | inconclusive: 55.4 µM [cytotoxic, partial curve, poor fit] |
| CCCCCOC(=O)c1ccc(O)cc1 | inconclusive: 55.6 µM [cytotoxic, partial curve, poor fit] |
| CC(C)c1ccccc1 | inconclusive: 64 µM [cytotoxic, single point] |
| CCCCc1ccc2nc(NC(=O)OC)[nH]c2c1 | inconclusive: 16.8 µM [cytotoxic, partial curve, poor fit] |

test system: not listed separately; assay: qHTS assay to identify small molecule antagonists of the peroxisome proliferator-activated receptor delta (PPARd) signaling pathway - cell viability counter screen (AID 743213); conditions: PPARd-bla HEK293H viability, CellTiter-Glo luminescence, 17 h; viability change, negative = cytotoxic: at 62 µM (top of the series) unless noted; note: nearly all actives have a fitted effect of over 50% in size
Outline: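 CellTiter-Glo was added to PPARd-bla HEK293H wells following 17 h compound treatment in the presence of 300 nM L165041. Luminescence was recorded after 30 min at room temperature.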

| Compound | Potency |
| --- | --- |
| CCCCCCCCCCCCCCOS(=O)(=O)O | active: 43.6 µM |
| Cc1ncc([N+](=O)[O-])n1C | inconclusive: 0.0237 µM [cytotoxic, partial curve, poor fit] |
| CC(C)c1ccccc1 | inconclusive: 64 µM [cytotoxic, partial curve, poor fit] |

target: Bile acid receptor (Homo sapiens) (UniProt Q96RI1); assay: qHTS assay to identify small molecule antagonists of the farnesoid-X-receptor (FXR) signaling pathway (AID 743217; active = well fitted inhibition curve with a large enough effect in the signal ratio in the repeat runs, not every such curve was filed as active; inconclusive = weak or mixed curves, or effect the other way; inactive = no such curve, though single readings can be large or run the other way; the % refers to the signal ratio); conditions: HEK293T FXR-UAS-bla, beta-lactamase ratio, CDCA-stimulated, 16 h; activity change, negative = inhibition: at 62.6 µM (top of the series) unless noted
Sequence of UniProt Q96RI1 (Q96RI1 whole entry, looked up): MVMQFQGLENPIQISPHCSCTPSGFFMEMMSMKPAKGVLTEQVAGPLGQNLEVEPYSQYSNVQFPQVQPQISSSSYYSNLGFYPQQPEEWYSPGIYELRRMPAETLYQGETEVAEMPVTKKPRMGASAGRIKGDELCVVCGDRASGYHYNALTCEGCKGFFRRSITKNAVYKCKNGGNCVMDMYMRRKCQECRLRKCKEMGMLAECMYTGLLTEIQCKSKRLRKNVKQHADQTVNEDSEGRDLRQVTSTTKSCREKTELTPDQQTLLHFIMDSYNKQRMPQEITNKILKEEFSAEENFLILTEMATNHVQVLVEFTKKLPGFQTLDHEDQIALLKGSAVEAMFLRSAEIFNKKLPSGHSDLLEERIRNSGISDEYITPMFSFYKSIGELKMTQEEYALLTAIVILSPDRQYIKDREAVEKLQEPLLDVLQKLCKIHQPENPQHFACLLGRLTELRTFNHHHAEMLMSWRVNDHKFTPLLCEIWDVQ
Outline: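 Quantitative HTS, beta-lactamase reporter format: FXR-UAS-bla HEK 293T cells co-treated 16 h at 37 °C with compounds and 50 uM final chenodeoxycholic acid, then read by B/G FRET fluorescence.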

| Compound | activity change, negative = inhibition | Potency |
| --- | --- | --- |
| CCCCCOC(=O)c1ccc(O)cc1 | inconclusive: -22.3% [at 81.1 µM] |  |
| CC(C)c1ccccc1 | inactive: 0.0454% [at 81.1 µM] |  |
| CCCCc1ccc2nc(NC(=O)OC)[nH]c2c1 |  | inconclusive: 0.15 µM [inhibitor, full curve] |

test system: not listed separately; assay: qHTS assay to identify small molecule agonists of the farnesoid-X-receptor (FXR) signaling pathway - cell viability counter screen (AID 743218); conditions: FXR-bla HEK293T viability, CellTiter-Glo luminescence, 16 h; viability change, negative = cytotoxic: at 62.6 µM (top of the series) unless noted; note: nearly all actives have a fitted effect of over 45% in size
Outline: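 Same-well cytotoxicity check on FXR-UAS-bla HEK 293T cells: 5 h attachment, 16 h compound at 37 C, CellTiter-Glo luminescence read at room temperature after 30 min.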

| Compound | viability change, negative = cytotoxic | Potency |
| --- | --- | --- |
| O=C1C=CC(=O)O1 | inactive: 10.5% [at 81.1 µM] |  |
| CCCCCCCCCCCCCCOS(=O)(=O)O |  | active: 54.9 µM |
| OC[C@H]1O[C@@H](Oc2ccc(O)cc2)[C@H](O)[C@@H](O)[C@@H]1O |  | inconclusive: 10.6 µM [rising, partial curve, poor fit] |
| CCCCCOC(=O)c1ccc(O)cc1 |  | inconclusive: 0.007 µM [rising, full curve, poor fit] |
| O=C(Cl)c1cccc([N+](=O)[O-])c1 | inactive: 15.8% |  |

target: Vitamin D3 receptor (Homo sapiens) (UniProt P11473); assay: qHTS assay to identify small molecule antagonists of the vitamin D receptor (VDR) signaling pathway (AID 743223; active = well fitted inhibition curve with a large enough effect in the signal ratio in the repeat runs, not every such curve was filed as active; inconclusive = weak or mixed curves, or effect the other way; inactive = no such curve, though single readings can be large or run the other way; the % refers to the signal ratio); conditions: VDR-UAS-bla HEK293T, beta-lactamase FRET ratio, 16 h; activity change, negative = inhibition: at 61 µM (top of the series) unless noted
Sequence of UniProt P11473 (P11473 whole entry, looked up): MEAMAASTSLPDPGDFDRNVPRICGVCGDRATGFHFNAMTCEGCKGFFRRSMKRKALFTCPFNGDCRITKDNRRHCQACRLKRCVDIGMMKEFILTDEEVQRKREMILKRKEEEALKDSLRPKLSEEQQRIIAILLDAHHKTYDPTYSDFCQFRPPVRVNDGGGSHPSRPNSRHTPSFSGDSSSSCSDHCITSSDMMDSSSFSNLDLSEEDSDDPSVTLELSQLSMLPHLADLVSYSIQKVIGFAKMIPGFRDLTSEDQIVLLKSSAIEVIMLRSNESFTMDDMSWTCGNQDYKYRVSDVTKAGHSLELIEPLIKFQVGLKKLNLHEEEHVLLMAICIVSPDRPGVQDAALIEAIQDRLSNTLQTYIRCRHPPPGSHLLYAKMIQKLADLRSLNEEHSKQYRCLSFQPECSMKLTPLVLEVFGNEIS
Outline: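 Agonist 1alpha,25-dihydroxyvitamin D3 (3 nM in well) was added with each compound to VDR-bla cells preincubated 4 h. Cells stood 16 h at 37C, then FRET substrate 2 h at room temperature; fluorescence intensity recorded.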

| Compound | activity change, negative = inhibition | Potency |
| --- | --- | --- |
| O=[N+]([O-])c1ccc2[nH]ncc2c1 | inactive: 3.52% |  |
| CC(=O)Nc1ccc(N)cc1 |  | inconclusive: 22.2 µM [activator, partial curve, poor fit] |
| CCOCCOCC | inconclusive: 21.3% [at 78.8 µM] |  |
| O=C(O)c1ccc(S(=O)(=O)O)cc1C(=O)O | inconclusive: -2.18% [at 78.8 µM] |  |
| CCCC(=O)Nc1ccc(OCC(O)CNC(C)C)c(C(C)=O)c1 (centres undefined) | inactive: -1.66% |  |
| COC(=O)C(C)O (centres undefined) | inconclusive: 21.7% [at 78.8 µM] |  |
| CCCCCOC(=O)c1ccc(O)cc1 | inconclusive: -33.1% [at 78.8 µM] |  |
| CC(C)c1ccccc1 | inactive: 1.67% [at 78.8 µM] |  |
| CCCCc1ccc2nc(NC(=O)OC)[nH]c2c1 | inconclusive: -34.1% |  |
| CN(C)CCCNCCC#N | inactive: 5.97% |  |
| CCCCC(CC)COC(=O)CCCCCCCCC(=O)OCC(CC)CCCC (centres undefined) | inactive: -2.52% |  |
| OC[C@H]1O[C@@H](OCCc2ccc(O)cc2)[C@H](O)[C@@H](O)[C@@H]1O | inconclusive: 6.18% |  |
| CCCCC(CC)CO (centres undefined) | inconclusive: 3.28% |  |
| COc1ccc(-c2cc(=O)c3c(O)cc(O[C@@H]4O[C@H](CO[C@@H]5O[C@@H](C)[C@H](O)[C@@H](O)[C@H]5O)[C@@H](O)[C@H](O)[C@H]4O)cc3o2)cc1O | inactive: 9.51% |  |
| CCC(C(=O)OCCN1CCOC(c2ccccc2)C1C)c1ccccc1 (centres undefined) | inconclusive: 4.73% |  |
| C=CCSSCCC | inactive: -2.61% |  |

test system: not listed separately; assay: qHTS assay to identify small molecule antagonists of the vitamin D receptor (VDR) signaling pathway - cell viability counter screen (AID 743225); conditions: VDR-bla HEK293T viability, CellTiter-Glo luminescence, 16 h; viability change, negative = cytotoxic: at 61 µM (top of the series) unless noted; note: nearly all actives have a fitted effect of over 50% in size
Outline: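 Luminescent cell viability (CellTiter-Glo) in VDR-bla HEK 293T cells after 16 h compound exposure at 37C in the presence of 3 nM final 1-alpha,25-dihydroxy vitamin D3.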

| Compound | viability change, negative = cytotoxic | Potency |
| --- | --- | --- |
| CC(=O)Nc1ccc(N)cc1 | inactive: 6.51% [at 78.8 µM] |  |
| O=C1C=CC(=O)O1 | inactive: -16.1% [at 78.8 µM] |  |
| CCCCCCCCCCCCCCOS(=O)(=O)O |  | inconclusive: 21.9 µM [cytotoxic, full curve] |
| CC[N+](CC)(CC(=O)Nc1c(C)cccc1C)Cc1ccccc1 (tested in a mixture with another compound) | inactive: 2.84% |  |
| Cc1ncc([N+](=O)[O-])n1C |  | inconclusive: 6.01 µM [cytotoxic, single point] |
| CCOC(=O)COc1ccc2c(c1)CC(NCC(O)c1cccc(Cl)c1)CC2 (centres undefined) |  | inconclusive: 0.0878 µM [cytotoxic, full curve, poor fit] |
| O=C(Cl)c1cccc([N+](=O)[O-])c1 |  | inconclusive: 21.3 µM [cytotoxic, single point] |
| CN(C)CCCNCCC#N |  | inconclusive: 61.6 µM [cytotoxic, single point] |
| CCCCC(CC)COC(=O)CCCCCCCCC(=O)OCC(CC)CCCC (centres undefined) | inactive: 5.35% |  |
| CCCCC(CC)CO (centres undefined) |  | inactive |
| CCC(C(=O)OCCN1CCOC(c2ccccc2)C1C)c1ccccc1 (centres undefined) |  | inconclusive: 26.8 µM [cytotoxic, single point] |
| OCCc1ccccn1 |  | inconclusive: 4.36 µM [rising, full curve, poor fit] |
